# Measured values reported in PubChem BioAssay AID2675 (National Center for Advancing Translational Sciences (NCATS), 2010).
# Out of some 280,000 compounds screened, about 100 (0.036%) were called active. Inconclusive means that the source gave no clear call. Such entries were picked first, then a sample of the others. The call rests on the fitted dose curve; in most records, active means well fitted inhibition curve with a large enough effect in the signal ratio, with a control signal flat (not every such curve was filed as active); inconclusive means small, poorly fitted or top-dose-only effect, or effect the other way, or a change in a side signal; inactive means no such curve, though single readings can be large or run the other way; the % refers to the signal ratio. Potencies of inconclusive entries are doubtful fits and often do not repeat. A note “side channel” means that the fit belongs to a control or component signal, not to the main read-out.
# Molecular target: Muscleblind-like protein 1 (Homo sapiens) (UniProt Q9NR56)
# Sequence of UniProt Q9NR56 (Q9NR56 whole entry, looked up): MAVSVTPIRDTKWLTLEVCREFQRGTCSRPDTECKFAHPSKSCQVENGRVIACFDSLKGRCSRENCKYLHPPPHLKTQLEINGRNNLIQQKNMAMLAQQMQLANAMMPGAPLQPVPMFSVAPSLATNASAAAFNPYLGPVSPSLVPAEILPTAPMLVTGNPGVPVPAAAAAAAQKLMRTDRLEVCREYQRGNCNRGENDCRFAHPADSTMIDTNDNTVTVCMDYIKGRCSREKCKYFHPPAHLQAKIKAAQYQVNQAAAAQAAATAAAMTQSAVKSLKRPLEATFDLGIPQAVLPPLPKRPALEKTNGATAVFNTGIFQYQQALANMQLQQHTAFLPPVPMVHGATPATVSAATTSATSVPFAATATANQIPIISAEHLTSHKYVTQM
# Test: qHTS Assay for Inhibitors of MBNL1-poly(CUG) RNA binding
# Details: TR-FRET MBNL1-His/biotin-(CUG)12 binding, 665/545 ratio; activity change, negative = inhibition: at 57.5 µM (top of the series)
# Summary of the method: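 His-tagged MBNL1 binding to biotinylated (CUG)12 RNA was measured by TR-FRET using terbium anti-His antibody (0.055 ng/ul final) and streptavidin-XL665 (5 nM final). Compounds were titrated 92 nM to 58 uM; 60 min at room temperature.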
# On the % scale 0 is the no-effect control and ±100 the full control effect; potency means the concentration at half of the fitted maximal effect; tags describe the fitted curve by direction and shape or compound fluorescence and quenching.
Compound,Potency,"activity change, negative = inhibition"
O=C(CN1C(=O)c2ccc([N+](=O)[O-])cc2C1=O)Nc1nccs1,"inconclusive: 15.8 µM [quencher, side channel, partial curve]",
CCOC(=O)CSc1nc(-c2ccncc2)ccc1C#N,"inconclusive: 28.2 µM [quencher, side channel, partial curve]",
O=c1c([N+](=O)[O-])c[nH]c2ccccc12,"inconclusive: 28.2 µM [quencher, side channel, single point]",
CCOC(=O)c1oc2cc(OCC(=O)OC)ccc2c(=O)c1-c1ccc(OC)c(OC)c1,"inconclusive: 11.2 µM [quencher, side channel, partial curve]",
N#Cc1c(NCc2ccccc2)ccnc1NCc1cccnc1,"inconclusive: 4.47 µM [quencher, side channel, full curve]",
O=S1(=O)NC(=NCc2ccco2)c2ccccc21,"inconclusive: 39.8 µM [quencher, side channel, single point]",
CC(=O)Nc1nn(C)c2nc3cc(C)ccc3cc12,"inconclusive: 15.8 µM [quencher, partial curve]",
CC1(C)CC(N=C2C([N+](=O)[O-])=CC=C3C2=NC2(CCCCC2)N3O)CC(C)(C)N1,"inconclusive: 11.2 µM [quencher, side channel, partial curve]",
Cc1nc2nc(SCC(=O)NCCCN3CCCCCC3)nn2c(C)c1Cc1ccccc1,"inconclusive: 100 µM [inhibitor, single point]",
CC(=O)C1=C(O)C(=O)N(c2ccccn2)C1c1ccccc1[N+](=O)[O-] (stereo unspecified),"inconclusive: 28.2 µM [quencher, side channel, partial curve]",
COc1cccc(NC(=O)CCNS(=O)(=O)c2cccc3nonc23)c1,"inconclusive: 11.2 µM [quencher, side channel, partial curve]",
Cc1ccc(NC(=O)CSc2nc3c(cc2C#N)C(=O)CCC3)cc1S(=O)(=O)N(C)C,"inconclusive: 0.562 µM [quencher, side channel, full curve, poor fit]",
CCCOC(=O)CC1C(=O)NCCN1Cc1cc(OC)cc(OC)c1 (stereo unspecified),,inactive: 5.5%
Cc1c(-c2ccc(Cl)cc2)oc(=O)c2c(N)n(-c3ccccc3)nc12,,inactive: 23.8%
Cc1ccc2cccc(O)c2[n+]1[O-],"inconclusive: 28.2 µM [quencher, side channel, single point]",
CCc1nc2scc(-c3cccs3)c2c(=O)o1,"inconclusive: 39.8 µM [inhibitor, single point]",
